Experimental data published in ChEMBL document CHEMBL1157539, “Thousands of chemical starting points for antimalarial lead identification” (Nature, 2010).
In all, about 13,000 compounds were measured (“IFI”: median about 4, highest 2% from about 17 on). Some of the results follow. Residues, ends and D or L forms follow the SMILES beside them. *: point of attachment. Octanoyl = CCCCCCCC(=O)*

Test: GSK_TCMDC: Inhibition Frequency Index (IFI). The number of non-kinase HTS assays where a compound showed > 50 % inhibition, expressed as a percentage of the number of such assays in which the compound was tested (-0 is zero)
Type: functional

First: CN1CCCC1CCNc1ncc2c(-c3ccc(NC(=O)Nc4cc(C(F)(F)F)ccc4F)c(F)c3)nn(C)c2n1 (stereo not given)
Second: COc1ccc(Nc2ncc3c(-c4cccc(NC(=O)c5ccc(N)cc5)c4)c[nH]c3n2)cc1OC
The IFI of the first is higher: 14.4% for the first, 8.7% for the second.

Compared with `CN(C)CCNC(=O)c1ccc(-c2ccc3c(Nc4ccccc4)c(C(N)=O)cnc3c2)cc1`, `Cc1cccc2nc(-c3ccc(-c4ccc(NC(=O)Nc5cccc(C#N)c5)cc4)cc3)[nH]c12` is lower in IFI: 3.13% for the first, -0% for the second.

Going from `CC1=C(C(=O)OC(C)C)C(c2ccccc2Cl)C2=C(CC(c3ccccc3)CC2=O)N1` (stereo not given) to `COc1ccc(NC(=O)[C@H](Cc2ccccc2)Nc2cc(C)nc(NCc3ccccc3C)n2)cc1`, the IFI rises from 3.33% to 4.65%.

First: Cc1ccc(NC(=O)c2ccc3ncccc3c2)cc1OC1CCN(CCC(C)C)CC1
Second: Cc1cc(NC(=O)c2cccs2)ccc1OC1CCN(Cc2ccc(C#N)cc2)C1 (stereo not given)
The IFI of the first is lower: 3.33% for the first, 5.97% for the second.

Going from `COc1ccc(CNCc2ccc(-c3cccc(-c4nc5cc(C(F)(F)F)ccc5[nH]4)c3)cc2)cc1` to `O=C(Nc1cccc(-c2cccc(-c3nc4cc(F)ccc4[nH]3)c2)c1)c1csnn1`, the IFI falls from 14.3% to 2.7%.

`CCCCCCCC(=O)N[C@@H](Cc1ccccc1)C(=O)N[C@H](C(=O)O)C(C)C` (Octanoyl-Phe-Val-OH) and `CCCc1cc(Cc2cnc(N)nc2N)ccc1OCCCCCC(=O)O` are the same in IFI: 0% for the first, 0% for the second.

Compared with `CCCCC(=O)NC(c1cccs1)c1cc(Cl)c2cccnc2c1O` (stereo not given), `Cc1cc(C)cc(OCC(O)CN(Cc2cc(Cl)cc(Cl)c2)C(=O)Nc2ccccc2Cl)c1` (stereo not given) is lower in IFI: 4.96% for the first, 1.41% for the second.

First: O=C(Nc1ccc(CN2CCN(S(=O)(=O)c3cccc(Cl)c3)CC2)cc1)c1cccs1
Second: O=C(Nc1ccc(N2CCCN(Cc3cccc(F)c3)CC2)cc1)c1cccs1
The IFI of the first is lower: 3.7% for the first, 5.71% for the second.

Going from `NS(=O)(=O)c1cccc(N/C=C2\C(=O)Nc3ccc(S(=O)(=O)Cc4c(Cl)cccc4Cl)cc32)c1` to `O=c1cc(NCCCNCc2cc(Cl)cc(Cl)c2OCc2ccc(Cl)cc2)[nH]c2ccccc12`, the IFI rises from 2.27% to 6.34%.

First: CCOC(=O)C(C(=O)OCC)c1nc(C)ns1
Second: CCN1CCN(c2cc(C)c3cc(NC(=O)c4ccc([N+](=O)[O-])c(C)c4)ccc3n2)CC1
The IFI of the first is lower: 0.74% for the first, 4.05% for the second.

Compared with `O=C(Nc1cn(-c2ccc(OCc3cccc(F)c3)c(Cl)c2)c2ncncc12)c1ccncc1`, `c1cc(Nc2nc(-c3ccc(-c4csc(Nc5ccncc5)n4)cc3)cs2)ccn1` is higher in IFI: 0.72% for the first, 9.66% for the second.

First: CNCc1cccc2nc(-c3csc(Cc4cc(Cl)ccc4OCC(C)C)n3)[nH]c12
Second: CCNc1c2ccc(Cl)cc2nc2ccc(OC)cc12
The IFI of the first is higher: 5.08% for the first, 2.11% for the second.

Compound `Nc1ncc(-c2ccccc2)cc1/C=C/c1cccnc1` has an IFI of 2.14%.
